# Test results taken from ChEMBL document CHEMBL4513135, “CO-ADD screening of IQOG CSIS (Spain) compounds”.
# The other results are listed elsewhere or left out. Results with a measured potency or affinity are listed apart.
# System: Pseudomonas aeruginosa
# Details: Concentration 32 ug.mL-1; ASSAY_TEST Inhibition of Bacterial Growth; detection method Absorption (OD600); MEDIA CAMHB; plate type 384well; NBS; CORNING #3640; time 18 hr
row,SMILES,Inhibition [%]
1,CC(C(=O)O)c1c[nH]c2ccccc12 (stereo not given),49.12
2,C#CCN(C)c1nc(NCCCC2CCN(Cc3ccccc3)CC2)c(C#N)cc1C#N,-3.53
3,C#CCNc1[nH]c2ccc(O)cc2c1C#N,22.49
4,COc1ccc(C2c3c(ccc4ccccc34)OC(=N)C2(Br)C#N)cc1 (stereo not given),21.31
5,CCOc1nc2nc3c(c(N)c2cc1C#N)CCCC3,9.45
6,CCOC(=O)C1=C(C)Oc2nc3c(c(N)c2C1c1ccccc1OC)CCC3 (stereo not given),42.21
7,COc1cc(CCC(N)=O)ccc1O,17.72
8,Cl.ClCCCN1CCCC1,11.03
9,C#CCN(C)c1nc(Cl)c(C#N)c(-c2ccccc2)c1C#N,8.09
10,O=C(N[C@H]1CC[C@H](O)CC1)c1ccccc1,23.83
11,O=C1NC(=S)N/C1=C\c1c[nH]c2ccccc12,14.28
12,COc1nc(N)c(C#N)c(-c2ccccc2)c1C#N,6.09
13,COc1ccc(C2c3c(ccc4ccccc34)OC(=N)C2(Br)C#N)cc1OC (stereo not given),-6.04
14,N#Cc1c(N)nc(N2CCC(Cc3ccccc3)CC2)c(C#N)c1-c1ccccc1,-2.05
15,Cc1[nH]nc2c1C(c1cccc([N+](=O)[O-])c1)C(C#N)=C(N)O2 (stereo not given),39.5
16,N#CC1=C(N)Oc2ccc3ccccc3c2C1c1ccccc1 (stereo not given),16.85
17,N#Cc1cc2c(N)n[nH]c2nc1N,20.33
18,CC(=O)Oc1ccc(C=C2N=C(c3ccccc3)OC2=O)cc1,-1.77
19,OCc1c(-c2ccc(Br)cc2)nc2ccccn12,21.78
20,Cc1nc2c3cnn(-c4ccccc4)c3nc(C)n2n1,20.52
